Consider 86 sequences from the supplement of paper PMC3334620.

In all, about 33,000 sequences were measured (“E-score (-0.5 to 0.5)”: median about -0.016, highest 2% from about 0.32 on). The list shows a part of the results.

In the test the target is T1, Stp1 (UniProt B3LFK1).
T1 sequence: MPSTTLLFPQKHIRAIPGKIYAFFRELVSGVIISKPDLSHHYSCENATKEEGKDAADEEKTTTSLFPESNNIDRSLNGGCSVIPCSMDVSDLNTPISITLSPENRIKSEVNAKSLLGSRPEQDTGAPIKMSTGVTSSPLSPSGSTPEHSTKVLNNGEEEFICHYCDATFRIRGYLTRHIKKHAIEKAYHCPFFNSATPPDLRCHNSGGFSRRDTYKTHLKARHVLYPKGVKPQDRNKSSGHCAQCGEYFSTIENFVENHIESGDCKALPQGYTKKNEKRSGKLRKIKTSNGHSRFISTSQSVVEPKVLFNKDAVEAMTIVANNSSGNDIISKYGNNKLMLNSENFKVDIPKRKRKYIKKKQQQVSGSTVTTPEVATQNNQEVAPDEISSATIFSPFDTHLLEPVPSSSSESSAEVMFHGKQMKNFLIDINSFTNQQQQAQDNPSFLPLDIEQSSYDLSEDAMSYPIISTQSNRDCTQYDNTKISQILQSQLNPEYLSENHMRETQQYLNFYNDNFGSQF
Kind of test: PBM E-score (8-mer binding enrichment) (E-score (-0.5 to 0.5)); higher = stronger / more preferred TF binding; most listed sequences are background and not binding sites. As to conditions: protein concentration: 200 nM; construct: GST-full length. The method, boiled down:
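E-scores (a modified Wilcoxon-Mann-Whitney statistic) were assigned by the Universal PBM Analysis Suite to every ungapped eight-base word pooled with its reverse complement. The input came from universal all-10-mer Agilent arrays made double-stranded by primer extension and probed with GST-tagged yeast transcription factors at about 100-200 nM. Fluorescent anti-GST detected bound protein, and masliner normalised the scans.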
Consider AATGTCTC, for which the “PBM E-score” value was -0.273.

On to GAAGAGGA, for which the “PBM E-score” value was -0.286. To ACTCTTCT belongs -0.0477; to CTAGCTCC, -0.106. As for AGGTCCGA, the “PBM E-score” value is -0.0987. Turning to CCTCAAAC, the “PBM E-score” value was determined as 0.0517. For CCACCCCG the value was -0.08; for GCTCTAAC, 0.076; for CCAGAATC, -0.0343.

As to ATTCTGAC, the “PBM E-score” value was -0.172. For CACTGAGG, the “PBM E-score” value is 0.0366. For GATAATCA the value was 0.138; for ATGTGAAG, 0.0231; for CATCATTC, -0.0189. To TGTAGTAA belongs 0.0399; to AATTGAAA, -0.00219.

TCAACCCA: the “PBM E-score” value came to 0.0435.

Regarding AGGTAAGC, the “PBM E-score” value is -0.118. As for ATGAGTGA, the “PBM E-score” value is 0.0723. For the sequence CATGGGGC, the “PBM E-score” value was 0.169. For GCAGCCAA the value was 0.00403; for CTCGGCTC, 0.029; for CAGAAGTA, 0.181. Take ATCTGCAT: the “PBM E-score” value is 0.101. For AAGTAACT the value was 0.105. To ACTGTTAT belongs 0.0873.

Regarding TGCACGAA, the “PBM E-score” value worked out at 0.209. With AGTGATAG, the “PBM E-score” value was -0.125. Regarding TCAAAAAA, the “PBM E-score” value worked out at 0.131. As for CCAGCCGG, the “PBM E-score” value is -0.156. For TCAGTGGA the value was 0.0187; for ACAAACGA, 0.129. As for ATCGCGAA, the “PBM E-score” value came out at 0.0513.

With AAGGCGAT, the “PBM E-score” value was determined as 0.329. For CTGGGCGA the value was -0.253; for CGAAATCA, 0.202. For CGAGAAGA the value was -0.0301; for ATCGACCG, -0.107; for CGAGTTGC, 0.0649. Regarding GCCTCACA, the “PBM E-score” value was 0.263. CATGGATA: the “PBM E-score” value is -0.0216. To GCGAAAAC belongs 0.154. To AACACTTA belongs 0.0357; to CGTTAACA, 0.0754; to CGGGAGTC, -0.238. To ATAACAGG belongs 0.00569. As for AATAACGT, the “PBM E-score” value is 0.0652. To CCACGCGA belongs -0.133. On to AAGAGCAC, for which the “PBM E-score” value was -0.0326. In the case of AAACCATA, the “PBM E-score” value was 0.135. For GAGCCATA the value was 0.0155; for CTCGCTAC, -0.195; for GATAGTGA, 0.171. As to CCAAGGGG, the “PBM E-score” value is 0.113. For AAGATGAG the value was -0.0799.

On to GAGCTAGC, for which the “PBM E-score” value is -0.131. Regarding CACACTGG, the “PBM E-score” value was -0.394. To CAATCAGA belongs -0.0823; to AGAAGCGA, -0.0609. For the sequence ACAATTAA, the “PBM E-score” value was 0.19. On to CACCAACC, for which the “PBM E-score” value is -0.125.

Consider ACAGTCAG, for which the “PBM E-score” value is 0.0149. As to CGTGTCGC, the “PBM E-score” value came to 0.223. For GGGTTGTA the value was 0.00753; for GTACCAAA, 0.0684; for CGAGGACG, -0.181. For ATGGGGTA the value was -0.0634; for TCGGAAGA, -0.178. To ATGGATCC belongs -0.0375. Take GATTCGAC: the “PBM E-score” value is -0.0793. To CGTATTTC belongs 0.108; to GTCCGGTA, -0.18.

On to ATTTACCG, for which the “PBM E-score” value came out at 0.0264. For AACCTCAA the value was -0.137; for CATATGCG, 0.158. Consider GGCTCTTA, for which the “PBM E-score” value was 0.123.

In the case of CAATACCA, the “PBM E-score” value turned out to be 0.0554. Turning to TCTACTAA, the “PBM E-score” value came out at 0.093. AAATCGCG: the “PBM E-score” value was found to be 0.0514. For GGTAGAGA the value was -0.101.

Consider TCCATCGA, for which the “PBM E-score” value is -0.0911. For TGCGCGAA the value was 0.147; for GAGATCGA, 0.0205; for GCTGACCC, -0.317. Consider ACGATCAA, for which the “PBM E-score” value was found to be 0.0497. Turning to CCTCCACC, the “PBM E-score” value was -0.269.
